Data: PubChem BioAssay (NCATS)
The list shows a part of the results. Shown are side measurements of this screen, not its main read-out; they come without a call. The list favours compounds with an active or inconclusive main result. Words in brackets tell the shape of the fitted curve; partial curves, single points and poor fits give uncertain potencies.

Assay: qHTS Assay for Lipid Storage Modulators (AID 1519)
Conditions: Drosophila S3 cells, BODIPY lipid droplet/cell ratio, laser cytometry, cells loaded with oleic acid
How it was run: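 Cells seeded at 5,000 per well were treated with compounds over a concentration series and loaded with oleic acid (400 uM, as added). Lipid droplet fluorescence (488 nm excitation, 500-530 nm channel) was read by laser-scanning cytometry and normalized to 20 uM Triacsin C.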

[1] = measured here: cell count channel max response
[2] = measured here: cell number channel AC50
[3] = measured here: lipid (BODIPY) channel AC50
[4] = measured here: lipid channel max response
Tags describe the fitted curve by direction and shape.

Row | SMILES | max response [1] [%] | AC50 [2] | AC50 [3] | max response [4] [%]
1 | Nc1ncnc2c1nc(Br)n2C1OC(CO)C(O)C1O (configuration not stated) | 34.6 | 31.6 µM [rising, partial curve, poor fit] | 25.1 µM [rising, partial curve, poor fit] | 40.5
2 | COc1ccc2[nH]c(I)c(CCNC(C)=O)c2c1 | 99.5 | 3.55 µM [rising, full curve] | 3.55 µM [rising, full curve] | 129
3 | COCCn1c(=O)c(-c2ccc(OC)cc2)nc2cnc(N3CCNCC3)nc21 | 32.4 | 2 µM [rising, full curve, poor fit] | 0.794 µM [rising, partial curve, poor fit] | 39.7
4 | O=c1c(-c2cc(F)cc(F)c2)nc2cncnc2n1Cc1ccccc1Cl | 31.6 | 2 µM [rising, full curve, poor fit] | 1.12 µM [rising, full curve, poor fit] | 35.8
5 | O=C1c2ccccc2C(=O)c2c(O)c(O)cc(O)c21 | 111 | 25.1 µM [rising, partial curve] | 15.8 µM [rising, partial curve] | 92
6 | Clc1cccc(Nc2nnc(-c3ccccc3)c3ccccc23)c1 | 62.6 | 0.891 µM [rising, full curve] | 0.708 µM [rising, full curve] | 83.3
7 | COc1ccc(CNc2ccnc(-c3cccnc3)n2)c(OC)c1 | 13.6 | 0.282 µM [rising, full curve] | 0.251 µM [rising, full curve] | 18.9
8 | CNc1nc(-c2cccc(C#N)c2)nc2ccccc12 | 35.8 | 0.355 µM [rising, full curve, poor fit] | 0.447 µM [rising, full curve] | 36.6
9 | Nc1cc(-c2ccncc2)c[nH]c1=O | 31 | 3.98 µM [rising, partial curve, poor fit] | 25.1 µM [rising, partial curve, poor fit] | 48.2
10 | C[C@@H]1O[C@@H](OC[C@H]2O[C@@H](Oc3c(-c4cccc(O)c4O)oc4cc(O)cc(O)c4c3=O)[C@H](O)[C@@H](O)[C@@H]2O)[C@H](O)[C@H](O)[C@H]1O | -39.1 | 3.55 µM [falling, partial curve, poor fit] | 0.158 µM [falling, full curve, poor fit] | -38.2
11 | O=C(O)C1CCCNC1 (configuration not stated) | 39 | 39.8 µM [rising, single point] | 39.8 µM [rising, single point] | 40.6
12 | Cc1cnc(CNc2ccnc(-c3ccoc3)n2)cn1 | 12.3 | 3.98 µM [rising, partial curve, poor fit] | 3.16 µM [rising, partial curve, poor fit] | 25.4
13 | COc1cc(OC)c2c(OC)c(-c3ccc4c(c3)OCO4)c(=O)oc2c1 | -2.95 | 0.355 µM [rising, full curve, poor fit] | 0.562 µM [rising, full curve] | 1.72
14 | COc1ccc2[nH]cc(CCNc3ccnc(-c4ccoc4)n3)c2c1 | 19.2 | 1 µM [rising, full curve] | 1 µM [rising, full curve] | 24.6
15 | O=c1c(-c2cc(F)cc(F)c2)nc2cncnc2n1C1CC1 | 41.6 | 15.8 µM [rising, partial curve] | 12.6 µM [rising, partial curve] | 49.2
16 | CNc1ncnc2ccc(-c3cccc(OC)c3)cc12 | -32.2 | 39.8 µM [falling, single point] | 39.8 µM [falling, single point] | -43.4
17 | CCCC[C@H](CC)CN=C(N)NC(N)=NCCCCCCN=C(N)NC(N)=NC[C@@H](CC)CCCC | -82.7 | 15.8 µM [falling, single point] | 15.8 µM [falling, partial curve, poor fit] | -93.4
18 | N[C@@H](C(=O)O)c1ccc(C(=O)O)cc1 | 42.5 | 39.8 µM [rising, single point] | 39.8 µM [rising, single point] | 49.5
